Our source for the enrichment ratio values is a collection of fitness landscapes (doi:10.1126/science.1257360).

This is one part of the list.

B1: PhoQ; a variant is named by its letters at X, in order, P23837 (parent)
chain: MKKLLRLFFPLSLRVRFLLATAAVVLVLSLAYGMVALIGYSVSFDKTTFRLLRGESNLFYTLAKWENNKLHVELPENIDKQSPTMTLIYDENGQLLWAQRDVPWLMKMIQPDWLKSNGFHEIEADVNDTSLLLSGDHSIQQQLQEVREDDDDAEMTHSVAVNVYPATSRMPKLTIVVVDTIPVELKSSYMVWSWFIYVLSANLLLVIPLLWVAAWWSLRPIEALAKEVRELEEHNRELLNPATTRELTSLVRNLNRLLKSERERYDKYRTTLTDLTHSLKTPLXXLQXXLRSLRSEKMSVSDAEPVMLEQISRISQQIGYYLHRASMRGGTLLSRELHPVAPLLDNLTSALNKVYQRKGVNISLDISPEISFVGEQNDFVEVMGNVLDNACKYCLEFVEISARQTDEHLYIVVEDDGPGIPLSKREVIFDRGQRVDTLRPGQGVGLAVAREITEQYEGKIVAGESMLGGARMEVIFGRQHSAPKDE

The assay covers variants of B1. Put plainly: enrichment ratio after two sorts for PhoP signalling (ratio (wild type AVST 3.29)); higher = more functional. The note with it: with PhoP (E. coli).
Consider GYYT, for which the enrichment ratio was ≤ 0.25.

For HMRH, the enrichment ratio was ≤ 0.25.

Regarding MASY, the enrichment ratio is ≤ 0.25.

KGPK: the enrichment ratio was ≤ 0.25.

As to FKIP, the enrichment ratio is ≤ 0.25.

Take GSRY: the enrichment ratio was ≤ 0.25.

Regarding LPNF, the enrichment ratio is ≤ 0.25.

In the case of WFHW, the enrichment ratio was ≤ 0.25.

On to NFSP, for which the enrichment ratio was ≤ 0.25.

For KGDR, the enrichment ratio was ≤ 0.25.

As to PMKW, the enrichment ratio was ≤ 0.25.

Take PWPC: the enrichment ratio is ≤ 0.25.

Take PGQN: the enrichment ratio is ≤ 0.25.

Take EHRT: the enrichment ratio was ≤ 0.25.

Turning to SWIG, the enrichment ratio was ≤ 0.25.

With KSRI, the enrichment ratio was ≤ 0.25.

For YNLR, the enrichment ratio is ≤ 0.25.

As to ELNC, the enrichment ratio was ≤ 0.25.

Take NCGM: the enrichment ratio was ≤ 0.25.

Turning to FVFH, the enrichment ratio was ≤ 0.25.

As for KEWY, the enrichment ratio is ≤ 0.25.

With QKKT, the enrichment ratio is ≤ 0.25.

Turning to GAHW, the enrichment ratio was ≤ 0.25.

In the case of RYSS, the enrichment ratio is ≤ 0.25.

TLML: the enrichment ratio was ≤ 0.25.

Take EPTS: the enrichment ratio was ≤ 0.25.

With AKAI, the enrichment ratio was found to be 5.1.

With YRCE, the enrichment ratio was ≤ 0.25.

On to SHED, for which the enrichment ratio is ≤ 0.25.

Regarding HMKI, the enrichment ratio is ≤ 0.25.

For the variant MDNS, the enrichment ratio was ≤ 0.25.

As to GKLR, the enrichment ratio is ≤ 0.25.

In the case of YSHC, the enrichment ratio was ≤ 0.25.

Take LAFK: the enrichment ratio is ≤ 0.25.

With QALQ, the enrichment ratio is ≤ 0.25.

With IVYF, the enrichment ratio is ≤ 0.25.

On to NCSF, for which the enrichment ratio was ≤ 0.25.

In the case of TDNP, the enrichment ratio was ≤ 0.25.

For the variant WQYH, the enrichment ratio was ≤ 0.25.

For FNAG, the enrichment ratio is ≤ 0.25.

Take EDHG: the enrichment ratio was ≤ 0.25.

Consider KRPC, for which the enrichment ratio was ≤ 0.25.

YYWG: the enrichment ratio is ≤ 0.25.

TKCI: the enrichment ratio was determined as 10.8.

On to EFMQ, for which the enrichment ratio is ≤ 0.25.

DINW: the enrichment ratio is ≤ 0.25.

Consider MDDF, for which the enrichment ratio was ≤ 0.25.

As for EQER, the enrichment ratio was ≤ 0.25.

Turning to DNGP, the enrichment ratio was ≤ 0.25.

Take SRDM: the enrichment ratio is ≤ 0.25.

With HNMF, the enrichment ratio is ≤ 0.25.

As to ARCY, the enrichment ratio came to 2.12.

For the variant SANS, the enrichment ratio is ≤ 0.25.

As to FPIQ, the enrichment ratio was ≤ 0.25.

For FQDG, the enrichment ratio was ≤ 0.25.

NFCA: the enrichment ratio was ≤ 0.25.

Regarding SHRP, the enrichment ratio is ≤ 0.25.

As for AGMH, the enrichment ratio stood at 26.

As for HQQC, the enrichment ratio is ≤ 0.25.

With GSIR, the enrichment ratio is ≤ 0.25.

Take KRVR: the enrichment ratio was ≤ 0.25.

In the case of QGSY, the enrichment ratio is 4.05.

Consider TTHW, for which the enrichment ratio is ≤ 0.25.

For DTPM, the enrichment ratio is ≤ 0.25.

As for NRGQ, the enrichment ratio is ≤ 0.25.

Take KRGG: the enrichment ratio is ≤ 0.25.

Regarding VRLL, the enrichment ratio is ≤ 0.25.

For the variant PYGT, the enrichment ratio is ≤ 0.25.

For WNFG, the enrichment ratio is ≤ 0.25.

With EQLM, the enrichment ratio is ≤ 0.25.

With PWIW, the enrichment ratio was ≤ 0.25.

In the case of PSSH, the enrichment ratio is ≤ 0.25.

For the variant FRDP, the enrichment ratio was ≤ 0.25.

As to DYMA, the enrichment ratio was ≤ 0.25.

WQVE: the enrichment ratio is ≤ 0.25.

Consider VKMC, for which the enrichment ratio was ≤ 0.25.

Take KVTN: the enrichment ratio was ≤ 0.25.

With TYAT, the enrichment ratio is ≤ 0.25.

With ARKG, the enrichment ratio is ≤ 0.25.

As for PTDC, the enrichment ratio was ≤ 0.25.

Regarding YVCW, the enrichment ratio was ≤ 0.25.

SQMW: the enrichment ratio is ≤ 0.25.

On to ATVW, for which the enrichment ratio is 3.56.

Regarding IGHG, the enrichment ratio is ≤ 0.25.

For the variant FPLH, the enrichment ratio is ≤ 0.25.

As for LASE, the enrichment ratio is ≤ 0.25.

Take AASC: the enrichment ratio is 0.887.

On to MDAK, for which the enrichment ratio is ≤ 0.25.

As for MPDL, the enrichment ratio was ≤ 0.25.

Regarding NGQK, the enrichment ratio was ≤ 0.25.

Turning to RVNT, the enrichment ratio is ≤ 0.25.

Consider HNLT, for which the enrichment ratio was ≤ 0.25.

Regarding MCHY, the enrichment ratio was ≤ 0.25.

For NYHD, the enrichment ratio is ≤ 0.25.

In the case of YCCH, the enrichment ratio is ≤ 0.25.

For MHGS, the enrichment ratio was ≤ 0.25.

Consider MKNW, for which the enrichment ratio was ≤ 0.25.

For the variant TIYQ, the enrichment ratio was 1.43.

In the case of SPNV, the enrichment ratio was ≤ 0.25.

With DHRC, the enrichment ratio is ≤ 0.25.

On to YLVM, for which the enrichment ratio is ≤ 0.25.

As to KEAN, the enrichment ratio is ≤ 0.25.

Take HAHY: the enrichment ratio is ≤ 0.25.

As for PLVC, the enrichment ratio is ≤ 0.25.

For the variant QCFI, the enrichment ratio is ≤ 0.25.

As to FYYR, the enrichment ratio is ≤ 0.25.

For SWMY, the enrichment ratio is ≤ 0.25.

Regarding ATFQ, the enrichment ratio came out at 2.02.

For FPNV, the enrichment ratio is ≤ 0.25.

On to RLAD, for which the enrichment ratio is ≤ 0.25.

Turning to AIGQ, the enrichment ratio was ≤ 0.25.

For the variant GKVC, the enrichment ratio is ≤ 0.25.

On to RIRN, for which the enrichment ratio is ≤ 0.25.

HYHK: the enrichment ratio is ≤ 0.25.

In the case of GSFW, the enrichment ratio was ≤ 0.25.

Turning to LFQK, the enrichment ratio is ≤ 0.25.

YLYK: the enrichment ratio was ≤ 0.25.

For HFGT, the enrichment ratio is ≤ 0.25.

Take AVFW: the enrichment ratio is ≤ 0.25.

As for QCHS, the enrichment ratio is ≤ 0.25.

For GSWS, the enrichment ratio is ≤ 0.25.

On to THYM, for which the enrichment ratio is 2.75.

Regarding LHKH, the enrichment ratio is ≤ 0.25.

In the case of WDNF, the enrichment ratio was ≤ 0.25.

Regarding QKRY, the enrichment ratio is ≤ 0.25.

For YYCG, the enrichment ratio is ≤ 0.25.

As for DIPE, the enrichment ratio is ≤ 0.25.

SIAH: the enrichment ratio was determined as 6.54.

Take YVDD: the enrichment ratio was ≤ 0.25.

Take DESR: the enrichment ratio is ≤ 0.25.

Take YGYN: the enrichment ratio was ≤ 0.25.

Regarding TGKS, the enrichment ratio was ≤ 0.25.

For the variant WVKN, the enrichment ratio is ≤ 0.25.

As for PEEI, the enrichment ratio is ≤ 0.25.

Take YDKG: the enrichment ratio is ≤ 0.25.

For NHWY, the enrichment ratio was ≤ 0.25.

As for DCRD, the enrichment ratio was ≤ 0.25.

Turning to DWIP, the enrichment ratio is ≤ 0.25.

For EMGV, the enrichment ratio is ≤ 0.25.

Turning to QRDS, the enrichment ratio is ≤ 0.25.

As for ISNV, the enrichment ratio worked out at 0.738.

In the case of QHDV, the enrichment ratio was 3.57.

Consider LQTH, for which the enrichment ratio is ≤ 0.25.

As for GWAL, the enrichment ratio is ≤ 0.25.

On to GYTE, for which the enrichment ratio is ≤ 0.25.

Consider FQRL, for which the enrichment ratio is ≤ 0.25.

Take QNTR: the enrichment ratio is ≤ 0.25.

In the case of LTNG, the enrichment ratio is ≤ 0.25.

For MTAW, the enrichment ratio is ≤ 0.25.

LVMP: the enrichment ratio worked out at 0.378.

Regarding KHTD, the enrichment ratio is ≤ 0.25.

On to IWHY, for which the enrichment ratio was ≤ 0.25.

As for VYVG, the enrichment ratio was ≤ 0.25.
